Measurements published in the supplement of paper PMC8728848.
The list shows a part of the results.

What was measured:
Assay in all cases: glycan array binding signal (z-score within array); higher = stronger binding
Conditions in all cases: glycan notation: IUPAC condensed, linker removed
[1] = molecular target: Gal(b1-3)GlcNAc(b1-2)Man(a1-3)[Gal(b1-3)GlcNAc(b1-2)Man(a1-6)]Man(b1-4)GlcNAc(b1-4)[Fuc(a1-6)]GlcNAc
In short: (§1)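 From the Consortium for Functional Glycomics database, 3228 arrays were curated, keeping only those whose protein sequence was available. Binding is given as a within-array Z-score averaged across arrays sharing a protein sequence and across linkers. Negative Z-scores can be read as non-binding.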

[2] = molecular target: Gal(b1-3)GlcNAc(b1-2)Man(a1-3)[GlcNAc(b1-4)][Gal(b1-3)GlcNAc(b1-2)Man(a1-6)]Man(b1-4)GlcNAc(b1-4)GlcNAc
In short: as §1

[3] = molecular target: Gal(b1-3)GlcNAc(b1-2)[Gal(b1-3)GlcNAc(b1-6)]Man(a1-6)[Gal(b1-3)GlcNAc(b1-2)Man(a1-3)]Man(b1-4)GlcNAc(b1-4)GlcNAc
In short: as §1

[4] = molecular target: Gal(b1-3)GlcNAc(b1-3)Gal(b1-3)GlcNAc
In short: as §1

[5] = molecular target: Gal(b1-3)GlcNAc(b1-3)Gal(b1-4)Glc
In short: as §1

[6] = molecular target: Gal(b1-3)GlcNAc(b1-3)Gal(b1-4)GlcNAc
In short: as §1

[7] = molecular target: Gal(b1-3)GlcNAc(b1-3)Gal(b1-4)GlcNAc(b1-2)Man(a1-3)[Gal(b1-3)GlcNAc(b1-3)Gal(b1-4)GlcNAc(b1-2)Man(a1-6)]Man(b1-4)GlcNAc(b1-4)GlcNAc
In short: as §1

[8] = molecular target: Gal(b1-3)GlcNAc(b1-3)Gal(b1-4)GlcNAc(b1-2)[Gal(b1-3)GlcNAc(b1-3)Gal(b1-4)GlcNAc(b1-6)]Man(a1-6)[Gal(b1-3)GlcNAc(b1-3)Gal(b1-4)GlcNAc(b1-2)Man(a1-3)]Man(b1-4)GlcNAc(b1-4)[Fuc(a1-6)]GlcNAc
In short: as §1

[9] = molecular target: Gal(b1-3)GlcNAc(b1-3)Gal(b1-4)GlcNAc(b1-3)Gal(b1-4)GlcNAc(b1-2)[Gal(b1-3)GlcNAc(b1-3)Gal(b1-4)GlcNAc(b1-3)Gal(b1-4)GlcNAc(b1-6)]Man(a1-6)[Gal(b1-3)GlcNAc(b1-3)Gal(b1-4)GlcNAc(b1-3)Gal(b1-4)GlcNAc(b1-2)Man(a1-3)]Man(b1-4)GlcNAc(b1-4)[Fuc(a1-6)]GlcNAc
In short: as §1

[10] = molecular target: Gal(b1-3)GlcNAc(b1-3)Gal(b1-4)GlcNAc(b1-6)[Gal(b1-3)GlcNAc(b1-3)]Gal(b1-4)Glc
In short: as §1

[11] = molecular target: Gal(b1-3)GlcNAc(b1-3)Gal(b1-4)[Fuc(a1-3)]GlcNAc
In short: as §1

[12] = molecular target: Gal(b1-3)GlcNAc(b1-3)Gal(b1-4)[Fuc(a1-3)]GlcNAc(b1-6)[Gal(b1-3)GlcNAc(b1-3)]Gal(b1-4)Glc
In short: as §1

[13] = molecular target: Gal(b1-3)GlcNAc(b1-3)GalNAc
In short: as §1

[14] = molecular target: Gal(b1-3)GlcNAc(b1-6)Gal(b1-4)GlcNAc
In short: as §1

[15] = molecular target: Gal(b1-3)GlcNAc(b1-6)GalNAc
In short: as §1

[16] = molecular target: Gal(b1-3)GlcNAc(b1-6)[Gal(b1-3)]GalNAc
In short: as §1

Gal(b1-3)GlcNAc6S = molecular target: Gal(b1-3)GlcNAc6S
In short: as §1

[17] = molecular target: Gal(b1-3)[Fuc(a1-4)]GlcNAc
In short: as §1

[18] = molecular target: Gal(b1-3)[Fuc(a1-4)]GlcNAc(b1-2)Man
In short: as §1

[19] = molecular target: Gal(b1-3)[Fuc(a1-4)]GlcNAc(b1-2)Man(a1-3)[Gal(b1-3)[Fuc(a1-4)]GlcNAc(b1-2)Man(a1-6)]Man(b1-4)GlcNAc(b1-4)[Fuc(a1-6)]GlcNAc
In short: as §1

[20] = molecular target: Gal(b1-3)[Fuc(a1-4)]GlcNAc(b1-3)Gal(b1-3)[Fuc(a1-4)]GlcNAc
In short: as §1

[21] = molecular target: Gal(b1-3)[Fuc(a1-4)]GlcNAc(b1-3)Gal(b1-4)[Fuc(a1-3)]GlcNAc
In short: as §1

[22] = molecular target: Gal(b1-3)[Fuc(a1-4)]GlcNAc(b1-6)GalNAc
In short: as §1

[23] = molecular target: Gal(b1-3)[GlcNAc(b1-6)]GalNAc
In short: as §1

[24] = molecular target: Gal(b1-3)[Neu5Ac(a2-6)]GalNAc
In short: as §1

[25] = molecular target: Gal(b1-3)[Neu5Ac(a2-6)]GlcNAc(b1-4)Gal(b1-4)Glc
In short: as §1

[26] = molecular target: Gal(b1-3)[Neu5Ac(b2-6)]GalNAc
In short: as §1

Gal(b1-4)Gal = molecular target: Gal(b1-4)Gal
In short: as §1

[27] = molecular target: Gal(b1-4)GalNAc(a1-3)[Fuc(a1-2)]Gal(b1-4)GlcNAc
In short: as §1

[28] = molecular target: Gal(b1-4)GalNAc(b1-3)[Fuc(a1-2)]Gal(b1-4)GlcNAc
In short: as §1

Gal(b1-4)Glc = molecular target: Gal(b1-4)Glc
In short: as §1

Gal(b1-4)Glc6S = molecular target: Gal(b1-4)Glc6S
In short: as §1

Gal(b1-4)GlcNAc = molecular target: Gal(b1-4)GlcNAc
In short: as §1

[29] = molecular target: Gal(b1-4)GlcNAc(a1-6)Gal(b1-4)GlcNAc
In short: as §1

Gal(b1-4)GlcNAc(b1-2)Man = molecular target: Gal(b1-4)GlcNAc(b1-2)Man
In short: as §1

[30] = molecular target: Gal(b1-4)GlcNAc(b1-2)Man(a1-3)Man(b1-4)GlcNAc(b1-4)GlcNAc
In short: as §1

[31] = molecular target: Gal(b1-4)GlcNAc(b1-2)Man(a1-3)[Gal(b1-4)GlcNAc(b1-2)Man(a1-6)]Man(b1-4)GlcNAc(b1-4)GlcNAc
In short: as §1

[32] = molecular target: Gal(b1-4)GlcNAc(b1-2)Man(a1-3)[Gal(b1-4)GlcNAc(b1-2)Man(a1-6)]Man(b1-4)GlcNAc(b1-4)[Fuc(a1-6)]GlcNAc
In short: as §1

[33] = molecular target: Gal(b1-4)GlcNAc(b1-2)Man(a1-3)[Gal(b1-4)GlcNAc(b1-2)Man(a1-6)][Gal(b1-4)GlcNAc(b1-4)]Man(b1-4)GlcNAc(b1-4)[Fuc(a1-6)]GlcNAc
In short: as §1

[34] = molecular target: Gal(b1-4)GlcNAc(b1-2)Man(a1-3)[Gal(b1-4)GlcNAc(b1-2)Man(a1-6)][GlcNAc(b1-4)]Man(b1-4)GlcNAc(b1-4)[Fuc(a1-6)]GlcNAc
In short: as §1

[35] = molecular target: Gal(b1-4)GlcNAc(b1-2)Man(a1-3)[GlcNAc(b1-2)Man(a1-6)]Man(b1-4)GlcNAc(b1-4)GlcNAc
In short: as §1

[36] = molecular target: Gal(b1-4)GlcNAc(b1-2)Man(a1-3)[GlcNAc(b1-4)][Gal(b1-4)GlcNAc(b1-2)Man(a1-6)]Man(b1-4)GlcNAc(b1-4)GlcNAc
In short: as §1

[37] = molecular target: Gal(b1-4)GlcNAc(b1-2)Man(a1-3)[Man(a1-6)]Man(b1-4)GlcNAc(b1-4)GlcNAc
In short: as §1

[38] = molecular target: Gal(b1-4)GlcNAc(b1-2)Man(a1-6)Man(b1-4)GlcNAc(b1-4)GlcNAc
In short: as §1

[39] = molecular target: Gal(b1-4)GlcNAc(b1-2)Man(a1-6)[GlcNAc(b1-2)Man(a1-3)]Man(b1-4)GlcNAc(b1-4)GlcNAc
In short: as §1

B1: AidA (Burkholderia cenocepacia) (protein)
chain: MSRVTDVLVSFDTETILKKYPNPSKNPAAPTLIDWRYVYMVTNQDNVISGQAGGELDLKAQVGDLIRWRETSLSLGFENQVVFYKFIGNVGNDLISTPTPRVAEASIPVPNTSKPEVPTCQKVANYYWSSECLKVGRVTYHFQFQIIDRNCQSQGCFSWDPFISIHN
B1 was tested. Which “glycan array binding signal (z-score)” value [1] did it give?
Its value is -0.149.

And the “glycan array binding signal (z-score)” value [2]?
Its value is 0.522.

What about the “glycan array binding signal (z-score)” value [3] of the same binder?
The value was -0.266.

What about the “glycan array binding signal (z-score)” value [4] of the same binder?
The value was 0.167.

And the “glycan array binding signal (z-score)” value [5]?
The value was 0.229.

And the “glycan array binding signal (z-score)” value [6]?
The value was -0.233.

And the “glycan array binding signal (z-score)” value [7]?
The value was -0.494.

What about the “glycan array binding signal (z-score)” value [8] of the same binder?
The value was 0.968.

What about the “glycan array binding signal (z-score)” value [9] of the same binder?
The value was -0.264.

What about the “glycan array binding signal (z-score)” value [10] of the same binder?
The value was -0.359.

And the “glycan array binding signal (z-score)” value [11]?
The value was -0.105.

And the “glycan array binding signal (z-score)” value [12]?
The value was -0.264.

What about the “glycan array binding signal (z-score)” value [13] of the same binder?
The value was -0.553.

What about the “glycan array binding signal (z-score)” value [14] of the same binder?
The value was -0.05.

And the “glycan array binding signal (z-score)” value [15]?
Its value is -0.128.

And the “glycan array binding signal (z-score)” value [16]?
The value was -0.573.

And the “glycan array binding signal (z-score)” value (Gal(b1-3)GlcNAc6S)?
Its value is -0.48.

And the “glycan array binding signal (z-score)” value [17]?
Its value is 0.331.

What about the “glycan array binding signal (z-score)” value [18] of the same binder?
The value was -0.108.

What about the “glycan array binding signal (z-score)” value [19] of the same binder?
The value was -0.137.

What about the “glycan array binding signal (z-score)” value [20] of the same binder?
The value was -0.101.

What about the “glycan array binding signal (z-score)” value [21] of the same binder?
Its value is -0.392.

And the “glycan array binding signal (z-score)” value [22]?
The value was 0.516.

What about the “glycan array binding signal (z-score)” value [23] of the same binder?
The value was -0.282.

And the “glycan array binding signal (z-score)” value [24]?
Its value is 0.097.

What about the “glycan array binding signal (z-score)” value [25] of the same binder?
The value was -0.165.

And the “glycan array binding signal (z-score)” value [26]?
Its value is -1.13.

And the “glycan array binding signal (z-score)” value (Gal(b1-4)Gal)?
Its value is -0.042.

What about the “glycan array binding signal (z-score)” value [27] of the same binder?
Its value is 0.301.

And the “glycan array binding signal (z-score)” value [28]?
The value was -0.557.

What about the “glycan array binding signal (z-score)” value (Gal(b1-4)Glc) of the same binder?
The value was -0.358.

And the “glycan array binding signal (z-score)” value (Gal(b1-4)Glc6S)?
The value was 0.406.

And the “glycan array binding signal (z-score)” value (Gal(b1-4)GlcNAc)?
Its value is 0.139.

And the “glycan array binding signal (z-score)” value [29]?
The value was -0.503.

And the “glycan array binding signal (z-score)” value (Gal(b1-4)GlcNAc(b1-2)Man)?
The value was -0.462.

And the “glycan array binding signal (z-score)” value [30]?
Its value is -0.97.

And the “glycan array binding signal (z-score)” value [31]?
Its value is 0.025.

What about the “glycan array binding signal (z-score)” value [32] of the same binder?
The value was -0.076.

What about the “glycan array binding signal (z-score)” value [33] of the same binder?
The value was 0.628.

What about the “glycan array binding signal (z-score)” value [34] of the same binder?
The value was -0.279.

What about the “glycan array binding signal (z-score)” value [35] of the same binder?
The value was -0.325.

And the “glycan array binding signal (z-score)” value [36]?
The value was -0.59.

And the “glycan array binding signal (z-score)” value [37]?
The value was -0.209.

What about the “glycan array binding signal (z-score)” value [38] of the same binder?
Its value is 0.348.

And the “glycan array binding signal (z-score)” value [39]?
Its value is -0.429.
